# About 190 (0.13%) of roughly 150,000 compounds were called active. This list was built around the results that the source calls inconclusive (neither active nor inactive); the mix of calls is not that of the screen. Calls come from the whole dose curve; as a rule, active = well fitted inhibition curve with a large enough effect; inconclusive = small, poorly fitted or top-dose-only effect; inactive = flat fitted curve, though single readings scatter. A potency beside an inconclusive call is a rough fit, not a confirmed value.
# Target: Polyunsaturated fatty acid lipoxygenase ALOX12 (Homo sapiens) (UniProt P18054)
# UniProt P18054, sequence (P18054 whole entry, looked up): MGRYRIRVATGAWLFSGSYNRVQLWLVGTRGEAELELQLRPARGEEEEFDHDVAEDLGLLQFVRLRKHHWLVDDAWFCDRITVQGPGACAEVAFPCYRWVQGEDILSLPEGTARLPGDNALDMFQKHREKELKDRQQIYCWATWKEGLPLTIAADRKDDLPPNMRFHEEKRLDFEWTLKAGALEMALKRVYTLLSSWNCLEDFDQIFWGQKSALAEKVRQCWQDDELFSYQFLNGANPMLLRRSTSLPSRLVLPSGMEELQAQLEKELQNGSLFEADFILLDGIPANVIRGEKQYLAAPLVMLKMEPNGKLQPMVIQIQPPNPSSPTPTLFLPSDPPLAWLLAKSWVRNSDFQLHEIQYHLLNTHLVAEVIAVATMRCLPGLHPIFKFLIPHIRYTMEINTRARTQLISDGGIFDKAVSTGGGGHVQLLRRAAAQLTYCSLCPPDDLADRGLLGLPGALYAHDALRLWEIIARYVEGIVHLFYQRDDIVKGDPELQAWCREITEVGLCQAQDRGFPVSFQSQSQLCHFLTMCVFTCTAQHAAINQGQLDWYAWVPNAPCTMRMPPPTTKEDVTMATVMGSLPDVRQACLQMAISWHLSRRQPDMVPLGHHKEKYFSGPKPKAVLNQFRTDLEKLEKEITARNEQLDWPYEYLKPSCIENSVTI
# Experiment: qHTS Assay for Inhibitors of 12-hLO (12-human lipoxygenase); note: nearly all actives have a fitted effect of over 55% in size
# Conditions: purified 12-hLO, xylenol orange hydroperoxide absorbance; series mostly up to 57.1 µM; activity change, negative = inhibition: at the top concentration
# Summary of the method: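 Xylenol orange chromogenic assay: hydroperoxide from 12hLO oxidises Fe(II), giving red-shifted Fe(III)-XO absorbance. Conditions: 150 nM enzyme, 40 uM arachidonic acid, 25 mM Hepes pH 7.0, 0.01% Triton X-100, 30 min, room temperature.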
# % is set by controls: 0 for no effect and ±100 for the full control effect; potency is the fitted concentration of half-maximal effect; tags give direction and shape of the fitted curve.
Compound,"activity change, negative = inhibition",Potency
COC(=O)N1CCC2(CC1)CN(C(=O)Nc1ccc(OC)cc1)C2,inactive: 0.255%,
O=C1N/C(=N\N=C\c2ccccn2)SC1Cc1cccc(SC(F)F)c1 (stereo not given),inactive: 2.23%,
Cc1ccc(COn2c(-c3ccc(Cl)cc3)nc3ccc([N+](=O)[O-])cc32)cc1,,"inconclusive: 8.91 µM [inhibitor, full curve, poor fit]"
Cc1ccc(C2CC2c2n[nH]c(=S)n2-c2ccc(Cl)cc2)cc1 (stereo not given),,"inconclusive: 28.2 µM [inhibitor, partial curve]"
O=C(NC1CCCCC1)C1CC=CCC1C(=O)OCC(Cl)=C(Cl)Cl (stereo not given),,"inconclusive: 22.4 µM [inhibitor, partial curve, poor fit]"
CCCN1C(=O)/C(=C/c2ccco2)SC1=Nc1ccc(OC)cc1,,"inconclusive: 20 µM [inhibitor, partial curve]"
Cc1ccc(S(=O)(=O)N(C)Cc2ccc(-c3nnco3)cc2)cc1,inactive: -0.365%,
CN1CCC[C@@H]1c1cccnc1.O=C(O)c1ccccc1O.O=C([OH2+])c1ccccc1O.O=C([OH2+])c1ccccc1O.O=C([OH2+])c1ccccc1O.[Cu],,"inconclusive: 3.16 µM [inhibitor, partial curve]"
O=C(/C=C/c1ccc2c(c1)OCO2)NCCSCc1cccc(Cl)c1,,"inconclusive: 14.1 µM [inhibitor, partial curve]"
CC1CC(=S)Nc2ccccc2N1Cc1ccccc1 (stereo not given),,"inconclusive: 39.8 µM [inhibitor, single point]"
O=C1NC2(NN1c1ccccc1)C1CC3CC(C1)CC2C3 (stereo not given),,"inconclusive: 2.82 µM [inhibitor, single point]"
Cc1cccc(NC(=S)NCc2cccs2)c1C,,"inconclusive: 28.2 µM [inhibitor, partial curve]"
Cc1ccc(C(=O)c2nocc2C(=O)c2cccs2)cc1,inactive: -10.4%,
CCc1nnc(NS(=O)(=O)c2ccc(NC(=S)NC(=O)/C=C/c3ccccc3)cc2)s1,,"inconclusive: 7.94 µM [inhibitor, partial curve]"
COC(=O)c1ccccc1NC(=S)NC(=O)c1cccc2ccccc12,,"inconclusive: 15.8 µM [inhibitor, partial curve]"
COc1ccc(N/C=C\C(=O)c2ccc3c(c2)OCO3)cc1,,"inconclusive: 3.55 µM [inhibitor, full curve]"
O=C1OC2(CCCCC2)OC(=O)C1=CNc1nccs1,inactive: -2.03%,
O=C(Nc1nnc(-c2ccccn2)o1)c1ccc(Br)cc1,,"inconclusive: 2.51 µM [inhibitor, full curve]"
Cc1oc(-c2ccccc2)cc1C(=O)Nc1ccc2ccccc2c1,,"inconclusive: 14.1 µM [inhibitor, partial curve]"
COC(=O)c1ccsc1NC(=O)C1=COCCO1,,"inconclusive: 7.08 µM [inhibitor, single point]"
Cc1cc(C(=O)CSc2nc3ccc(Cl)cc3[nH]2)c(C)n1C,,"inconclusive: 15.8 µM [inhibitor, partial curve]"
N#CC1=C(N)C2=CCCC[C@H]2[C@H](c2ccc(Br)cc2)C1(C#N)C#N,,"inconclusive: 31.6 µM [inhibitor, single point]"
Cc1ccccc1/C(N)=N/OC(=O)N1c2ccccc2Sc2ccccc21,,"inconclusive: 20 µM [inhibitor, partial curve]"
CC1CCN(CCNC(=O)c2ccc(NC(=O)C3CCCO3)cc2)CC1 (stereo not given),inactive: -3%,

Compound,"activity change, negative = inhibition",Potency
O=C(c1cn(-c2ccccc2)nc1-c1ccc(F)cc1)N1CCOCC1,inactive: 2.11%,
CC1(C)C(N(O)C(=O)Nc2ccc(Cl)cc2)N(c2ccc(Cl)cc2)C(=O)N1CC(=O)NN (stereo not given),,"inconclusive: 14.1 µM [inhibitor, partial curve]"
O=C(Nc1ccccc1)c1nnsc1S(=O)c1ccc(Cl)cc1 (stereo not given),,"inconclusive: 25.1 µM [inhibitor, partial curve]"
Nc1cccc(C(F)(F)F)c1,inactive: 7.02%,
COc1ccccc1N1CCN(Cc2ccc(O)c3ncccc23)CC1,,"inconclusive: 1.12 µM [inhibitor, full curve]"
CCOC(=O)Cc1csc(NC(=O)c2sc3nc4c(C)cc(C)cc4cc3c2N)n1,,"inconclusive: 8.91 µM [inhibitor, full curve]"
COc1ccc(Sc2ccc(/C=C3\C(=O)NN(c4ccccc4)C3=O)o2)cc1,,"inconclusive: 12.6 µM [inhibitor, partial curve]"
CCc1ccc(/C=N/NC(=S)NCCc2ccccc2)cc1,,"inconclusive: 31.6 µM [inhibitor, single point]"
N#CC1=C(N)C(C#N)(C#N)C2(C(=O)Nc3ccccc32)C2CCCC=C12 (stereo not given),,"inconclusive: 22.4 µM [inhibitor, single point]"
CC(=O)N1CCN(c2ccc(NC(=O)c3ccc(C(C)(C)C)cc3)cc2)CC1,inactive: -3.12%,
Cc1ccc(NC(=O)c2cc(N3C(=O)C=CC3=O)ccc2N2CCOCC2)cc1Cl,,"inconclusive: 8.91 µM [inhibitor, full curve]"
Cc1cc2c(cc1Cl)C(c1ccc3c(c1)OCO3)CC(=O)O2 (stereo not given),inactive: 2.14% [at 0.00818 µM],
CCOC(=O)C(=NC(C)CC)NNc1cccc(C(F)(F)F)c1 (stereo not given),,"inconclusive: 2 µM [inhibitor, full curve]"
O=C(NCc1ccco1)c1ccccc1F,inactive: -3.22%,
Cc1ccccc1NCc1ccc(O)c2ncccc12,,"inconclusive: 11.2 µM [inhibitor, partial curve]"
COc1cccc(N=Cc2c(O)n(-c3cccc(C)n3)c(=O)c3ccccc23)c1,,"inconclusive: 12.6 µM [inhibitor, partial curve]"
COC(=O)C1=C(C(=O)OC)[C@@H]2Nc3ccccc3[C@@]23C[C@@H](C(=O)OC)N(S(=O)(=O)c2ccc(C(F)(F)F)cc2)C3=N1,inactive: -0.617% [at 11.4 µM],
CC(=O)Nc1cccc(NC(=O)c2c(-c3ccccc3)noc2C)c1,,"inconclusive: 39.8 µM [inhibitor, single point]"
CCOc1ccc(-c2nnc3sc(COc4ccccc4)nn23)cc1,inactive: 0.95%,
CC1=C(SCCC#N)S/C(=C2\SC(C)=C(SCCC#N)S2)S1,,"inconclusive: 25.1 µM [inhibitor, single point]"
O=C(N/N=C/c1cc(Br)ccc1O)c1ccccc1Cl,,"inconclusive: 4.47 µM [inhibitor, partial curve]"
CCc1ccc(/C=N/NC(=O)c2cc(-c3ccncc3)nc3ccccc23)s1,inactive: 2.85%,
O=C(COC(=O)CN1C(=O)c2ccccc2C1=O)Nc1ccc(S(=O)(=O)N2CCCC2)cc1,inactive: 6.22%,
CCn1c(SCC(=O)c2ccc(O)c(O)c2)nnc1-c1ccc(C)cc1,,"inconclusive: 0.794 µM [inhibitor, full curve]"

Compound,"activity change, negative = inhibition",Potency
COc1ccc(NC(=O)c2cccc(S(=O)(=O)Nc3ccc(Br)cc3)c2)cn1,,"inconclusive: 20 µM [inhibitor, single point]"
O=C(NCc1ccco1)c1csc2c1CCCCC2,inactive: 9.98%,
CCCCC(=O)NC(c1ccco1)c1c(O)ccc2ccccc12 (stereo not given),,"inconclusive: 14.1 µM [inhibitor, partial curve]"
CCOC(=O)C1=C(C)OC(N)=C(C#N)C1c1cc2cc(C)ccc2nc1N1CCCCC1 (stereo not given),,"inconclusive: 14.1 µM [inhibitor, partial curve]"
Nc1ccc(C2=Nc3cccc4cccc(c34)N2)cc1,,"inconclusive: 12.6 µM [inhibitor, partial curve]"
Nc1nc(Cl)cc(N2CCC(c3cc(-c4ccc(Cl)cc4)n[nH]3)CC2)n1,,"inconclusive: 7.94 µM [inhibitor, partial curve]"
CCOc1ccc(C(=O)Nc2ccc(N3CCN(C)CC3)cc2)cc1Br,,"inconclusive: 1.26 µM [inhibitor, full curve]"
O=C1CCC(=O)N1c1ccc(CSc2nnnn2C2CCCCC2)cc1,inactive: -5.53%,
C=CCNC(=O)C(C#N)c1nc2ccccc2nc1N1CCCCCC1 (stereo not given),,"inconclusive: 17.8 µM [inhibitor, partial curve]"
COc1ccccc1NC(=S)N/N=C/c1cccc(C)c1,,"inconclusive: 11.2 µM [inhibitor, partial curve]"
CCc1nnc(NC(=O)c2ccc(S(=O)(=O)N(CCOC)CCOC)cc2)o1,inactive: -0.905%,
Cc1ccc2[nH]c(=O)c(CN(CCO)Cc3nnnn3CCc3ccccc3)cc2c1,inactive: -8.04%,
O=S(=O)(N/N=C\c1ccc(-c2ccccc2Cl)o1)c1ccccc1,inactive: -24.4%,
C/C(=N\NC(=O)c1cc2c(s1)CCC(C)C2)c1cccnc1 (stereo not given),,"inconclusive: 1.12 µM [inhibitor, full curve, poor fit]"
O=S(=O)(c1ccccc1F)N(Cc1ccco1)Cc1nnc(-c2ccccc2Br)o1,inactive: -7.16%,
C/C(=N/NC(=O)c1cc2ccccc2cc1O)C1C(=O)c2ccccc2C1=O,,"inconclusive: 15.8 µM [inhibitor, partial curve]"
CC1CCN(c2c(NCC3CCC(C(=O)NCc4ccccc4Cl)CC3)c(=O)c2=O)CC1 (stereo not given),inactive: -0.82%,
Cc1ccc(-c2csc(NC(=O)c3ccc(-c4ccccc4)cc3)n2)o1,,"inconclusive: 31.6 µM [inhibitor, single point]"
Cc1nc2c(Br)cc(Br)cc2cc1O,inactive: -12.2%,
CC(C)(C)C(=O)NC(NC(=S)Nc1sc2c(c1C#N)CCCC2)C(Cl)(Cl)Cl (stereo not given),,"inconclusive: 14.1 µM [inhibitor, partial curve]"
N#C/C(=C\c1ccc(O)c(O)c1)C(=O)c1ccc(O)c(O)c1,,"inconclusive: 14.1 µM [inhibitor, partial curve]"
CCOC(=O)N1CCN(C(=O)CSc2ccccc2)CC1,inactive: -0.201%,
